Source: publication PMC4336329 (PLoS ONE, 2015)
In all, about 310,000 compounds went through this assay and about 14,000 (4.5%) showed an effect of 50% or more. The effect is printed as a negative number. The list shows a part of the results.

molecular target: human ether-à-go-go-related gene (hERG) potassium channel (human, UniProt Q12809); experiment: primary screen, population patch clamp on CHO cells stably expressing hERG
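Also: peak tail current of the secondary pulse compared with the same well before compound.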

Sequence of human ether-à-go-go-related gene (hERG) potassium channel (Q12809 whole entry, looked up): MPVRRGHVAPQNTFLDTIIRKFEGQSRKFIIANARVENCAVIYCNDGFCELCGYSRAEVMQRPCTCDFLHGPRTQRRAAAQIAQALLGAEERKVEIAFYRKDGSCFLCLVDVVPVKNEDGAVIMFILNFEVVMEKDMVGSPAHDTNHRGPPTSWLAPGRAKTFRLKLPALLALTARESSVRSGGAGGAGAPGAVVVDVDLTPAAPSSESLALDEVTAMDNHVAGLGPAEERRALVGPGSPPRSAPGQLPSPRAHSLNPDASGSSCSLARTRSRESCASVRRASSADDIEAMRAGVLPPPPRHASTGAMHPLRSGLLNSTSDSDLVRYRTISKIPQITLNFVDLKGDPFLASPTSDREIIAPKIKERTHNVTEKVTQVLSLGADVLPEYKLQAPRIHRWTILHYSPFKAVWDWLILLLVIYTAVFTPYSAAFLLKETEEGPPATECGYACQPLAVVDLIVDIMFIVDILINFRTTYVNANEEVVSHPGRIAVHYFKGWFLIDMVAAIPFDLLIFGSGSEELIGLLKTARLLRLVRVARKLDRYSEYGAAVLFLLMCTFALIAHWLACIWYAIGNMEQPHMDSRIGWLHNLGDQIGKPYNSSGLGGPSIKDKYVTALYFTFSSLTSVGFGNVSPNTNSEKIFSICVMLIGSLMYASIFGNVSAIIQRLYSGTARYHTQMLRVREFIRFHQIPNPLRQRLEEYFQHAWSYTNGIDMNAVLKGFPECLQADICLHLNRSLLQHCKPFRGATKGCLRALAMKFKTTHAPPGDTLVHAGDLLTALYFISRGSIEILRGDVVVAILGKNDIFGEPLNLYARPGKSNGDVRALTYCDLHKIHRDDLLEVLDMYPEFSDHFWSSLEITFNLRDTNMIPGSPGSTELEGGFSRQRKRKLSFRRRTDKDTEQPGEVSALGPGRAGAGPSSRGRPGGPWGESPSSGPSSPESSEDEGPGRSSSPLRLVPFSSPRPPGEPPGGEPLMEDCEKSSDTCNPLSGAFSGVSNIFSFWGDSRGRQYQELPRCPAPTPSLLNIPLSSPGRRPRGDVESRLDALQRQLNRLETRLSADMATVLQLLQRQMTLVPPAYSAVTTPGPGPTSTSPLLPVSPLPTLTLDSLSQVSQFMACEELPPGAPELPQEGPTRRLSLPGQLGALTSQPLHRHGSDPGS

| Structure (SMILES) | hERG current change (%, negative = inhibition) at 10uM [%] |
| --- | --- |
| O=C(NC1CCCC1)C(c1cccs1)N(C(=O)c1ccco1)c1ccc2c(c1)OCO2 (centres unmarked) | -33.5 |
| Cn1nc(-c2ccc(S(N)(=O)=O)s2)cc1C(F)(F)F | 3.88 |
| CCc1nnc(NS(=O)(=O)c2ccc(NC(=O)c3cc(Cl)ccc3Cl)cc2)s1 | 11.7 |
| COc1ccc2ccccc2c1/C=N/O | 7.38 |
| Cl.Clc1ccc(CNC2CCCC2)cc1 | -13.1 |
| O=C(CSc1ccccc1)Nc1ccc2c(c1)OCCO2 | -10.4 |
| COc1ccccc1OCC#CCNC1CCCCC1C.O=C(O)C(=O)O (centres unmarked) | -36.7 |
| O=C(O)c1c2c(nc3ccc(S(=O)(=O)N4CCC(C(=O)NC5CCCCCC5)CC4)cc13)CCCC2 | 18.1 |
| CC(=O)Nc1ccc(S(=O)(=O)NCC(=O)OCc2cc(=O)oc3ccc4ccccc4c23)cc1 | 0.407 |
| O=C(Nc1ccc(C(F)(F)F)cc1)OC1CN2CCC1CC2 (centres unmarked) | -34.3 |
| CCC(C)[C@H](NC(=O)Nc1ccccc1F)C(=O)OC (some centres unmarked) | 12 |
| Cc1onc(-c2ccccc2Cl)c1C(=O)Nc1cccc(-c2nc3ncccn3c2C)c1 | -63 |
| COc1cc(-c2noc(C3CCCN(C(=O)c4c(F)cccc4F)C3)n2)cc(OC)c1OC (centres unmarked) | 3.54 |
| CN(/N=C/c1cc(Cl)cc(Cl)c1O)C(=S)NC(C)(C)C | -48.8 |
| N#C/C(=C\C1CC=CCC1)c1nc2ccccc2[nH]1 (centres unmarked) | -10.5 |
| CCN(CC)S(=O)(=O)c1ccc(N2CCOCC2)c(NC(=O)C(=O)c2c(-c3ccccc3)cc3ccccn23)c1 | 3.48 |
| C[C@@H](NC(=O)c1[nH]cnc1C(=O)Nc1ccccc1)c1ccccc1 | 11.8 |
| O=C(O)c1cccc(NC(=O)c2cn(-c3ccccc3)nc2-c2ccc(F)cc2)c1 | 20.4 |
| CCOC(=O)N1CCN(C(=O)c2ccc(NC(=O)c3ccc(C)cc3)cc2)CC1 | -13.3 |
| CCOC(=O)c1sc2cc([N+](=O)[O-])cc(SCC(C)C)c2c1N | 6.2 |
| O=C(O)C1C2CCC(CC2)C1C(=O)N1CCN(Cc2ccc(F)cc2)CC1 (centres unmarked) | 24.2 |
| CC(C)CCn1c(CN2CCN(C(=O)c3ccco3)CC2)nc2c1c(=O)n(C)c(=O)n2C | -39.9 |

| Structure (SMILES) | hERG current change (%, negative = inhibition) at 10uM [%] |
| --- | --- |
| C=CCn1c(O)c2ccc(C(=O)N=NC(=O)c3ccc(F)cc3)cc2c1O | 1.04 |
| CC(=O)N(/N=C1\Sc2ccccc2C1=O)c1ccccc1C | -25.6 |
| Cc1ccc(Nc2nnc(SCC(=O)Nc3ncc(S(=O)(=O)c4ccc([N+](=O)[O-])cc4)s3)s2)cc1 | -14.5 |
| O=S(=O)(c1ccc2c(c1)OCCO2)N(Cc1ccc(F)cc1)Cc1nnc(-c2cccs2)o1 | -3.03 |
| CCOC(=O)c1cc(C)n(-c2ccc(Cl)cc2)c1C | -5.52 |
| O=C(/C=C/c1ccc(-c2ccccc2[N+](=O)[O-])o1)c1ccco1 | 15.4 |
| O=C(CSc1nc2ccccc2[nH]1)c1cccs1 | -8.91 |
| COC(=O)c1c(C)[nH]c(C(=O)CN(C)CC(=O)Nc2cccc(F)c2)c1C | -22.2 |
| CC(=O)N1CCc2cc(S(=O)(=O)NC(C)c3ccccc3)ccc21 (centres unmarked) | 11 |
| CCN(CCn1cccn1)C(=O)C1CCC(=O)N(CCc2cccc(F)c2)C1 (centres unmarked) | 7.41 |
| CC(C)CCn1c(N)c(C(=O)OCC2CCCO2)c2nc3ccccc3nc21 (centres unmarked) | -35.3 |
| COc1ccc(-c2c(C)c3ccc(O)cc3oc2=O)cc1OC | 17.9 |
| COc1ccc(OC)c(/C=N/n2c(C)nc3ccccc3c2=O)c1 | 5 |
| CC1(C)NC(=O)N(CC(=O)O)C1=O | 18 |
| COc1ccc(CN2CCN(Cc3ccc(OC)c(OC)c3OC)CC2)cc1.O=C(O)C(=O)O | -41.3 |
| O=C(O)CCCNC(=O)c1ccc(NC(=O)Cc2ccc(Cl)cc2)cc1 | 19.6 |
| Clc1ccc(-c2csc3ncnc(NCCN4CCOCC4)c23)cc1 | -20.8 |
| CN/C=C1\C(=O)C(C)(C)Oc2ccc3ccc(=O)oc3c21 | 10.8 |
| Cc1ccc(-c2nnc(Nc3cccc(O)c3)c3ccccc23)cc1S(=O)(=O)NCCO | 3.55 |
| O=C(NCCc1ccccc1)C(=O)Nc1nccs1 | -13.4 |
| O=C(c1ccco1)N1CCN(C(=O)c2cc(-c3ccncc3)nc3ccc(Br)cc23)CC1 | -72.7 |
| CCN(Cc1ccccc1)C(=O)COC(=O)CNC(=O)c1ccc(C)s1 | 1.42 |

| Structure (SMILES) | hERG current change (%, negative = inhibition) at 10uM [%] |
| --- | --- |
| CC(=O)/C(=N/Nc1ccccc1)Sc1nnc(C(O)c2ccccc2)n1-c1ccccc1 (centres unmarked) | -8.12 |
| Cc1ccc(-c2nnn(CC(=O)N(c3ccccc3)C(C(=O)NCC3CCCO3)c3ccc(F)cc3)n2)o1 (centres unmarked) | 21.2 |
| CCc1c(C)nc(SCC(N)=O)c(C#N)c1C | 3.26 |
| CCOC(=O)N1CCN(C(=O)c2ccc3c(c2)NC(=O)/C(=C\c2cccc(C)c2)S3)CC1 | -15.7 |
| Cc1ccsc1-c1nc(CSCC(=O)N2CCN(c3ccccc3)CC2)c(C)o1 | -21.1 |
| O=C(NCCCn1ccnc1)/C(=C\c1cccs1)NC(=O)c1ccco1 | -45.1 |
| COc1ccc(OC2CCN(S(=O)(=O)c3ccc(OC)cc3)CC2)cc1 | -0.158 |
| CC(=O)Nc1ccc(S(=O)(=O)N2CCN(C(=O)Cc3ccccc3)CC2)cc1 | -1.44 |
| CCc1c(C)nc(SCC(=O)N2CCCCC2C)[nH]c1=O (centres unmarked) | 1.22 |
| COCCN(C(=O)c1ccccc1OC)c1nnc(C)s1 | -5.25 |
| O=C(NCCCc1ccccc1)c1c(O)nc2sccn2c1=O | 0.864 |
| NC(=O)c1c(NC(=O)C2c3ccccc3Oc3ccccc32)sc2c1CCCCC2 | 6.4 |
| COc1ccccc1/C=N/N1C(=O)C(CC(=O)Nc2ccc([N+](=O)[O-])cc2OC)SC1=Nc1cccc(C)c1C (centres unmarked) | 16.3 |
| CN(Cc1nc2ccccc2[nH]1)Cc1nc(CC2CC2)no1 | -14.5 |
| COc1ccc(CC(=O)Nc2nnc(-c3cccc([N+](=O)[O-])c3)s2)cc1 | 10.8 |
| CC(CNC(=O)Cn1ccc(NC(=O)OCc2ccccc2)nc1=O)c1ccccc1 (centres unmarked) | 11.5 |
| O=C(CNCc1ccccn1)Nc1cc(S(=O)(=O)N2CCCCC2)ccc1Cl | -19 |
| COc1ccc(C2c3c(noc3C)CC(C)(O)C2C(C)=O)cc1 (centres unmarked) | 5.97 |
| CC(C)(C)c1csc(NC(=O)CS(=O)(=O)c2ccccc2)n1 | -41.8 |
| CC(C)=N/N=c1\scc(C)n1Cc1ccco1 | -1.92 |
| Cn1c(CN(O)S(=O)(=O)c2ccc(Cl)cc2)nnc1C(F)(F)F | 26 |
| CN(C)CCNc1nc2sc3c(c2c(=O)n1-c1ccc(F)cc1)CCCCC3 | -33.3 |

| Structure (SMILES) | hERG current change (%, negative = inhibition) at 10uM [%] |
| --- | --- |
| Cc1cc(=O)oc2c(C)c(OCC(=O)c3ccccc3)ccc12 | 19.6 |
| COC(=O)C1=C(N)Oc2cc(C)n(Cc3cccnc3)c(=O)c2C1c1ccc(OC)c(OC)c1OC (centres unmarked) | 2.11 |
| CC1CCCCC1NC(=O)COc1ncnc2sccc12 (centres unmarked) | 3.61 |
| C=CCSc1nc(C)cc(/C=C\c2ccccc2)c1C#N | -18.9 |
| CCOC(=O)c1cncn1C(C)c1ccccc1 (centres unmarked) | 13.3 |
| Cc1ncc(N=Nc2ccc(F)cc2)c(-c2ccc(Cl)cc2)n1 | 4.91 |
| Cl.O=C(c1ccccc1)C(CN1CCCC1)c1ccccc1 (centres unmarked) | 3.46 |
| Cc1onc(-c2c(F)cccc2Cl)c1C(=O)NCc1ccco1 | 16.7 |
| CCOC(=O)N1CCC(NC(=O)CCCC(=O)O)CC1 | 18.9 |
| COC(=O)c1sc(S(=O)(=O)N2CCN(c3ccccc3)CC2)c(C(=O)OC)c1C | -10.7 |
| C=CCn1c(SCC(=O)NC2CCS(=O)(=O)C2)nnc1-c1ccc(Cl)cc1 (centres unmarked) | -15.4 |
| CN(CC(=O)Nc1ccccc1Br)C(=O)c1sccc1-c1ccccc1 | -19.4 |
| COc1ccccc1-c1nnc(SCC(=O)Nc2ccc(Cl)cc2Cl)o1 | -26.2 |
| COc1cc(/C=N/NC(=O)c2cccnc2)ccc1OCC(=O)Nc1ccc(C)cc1 | 12.3 |
| NC(=O)CSc1nc2ccccc2n1-c1ccccc1 | -4.72 |
| COc1ccc2c(c1)C1=NN(/C(C)=C\C(C)=O)C(c3ccccc3)C1CC2 (centres unmarked) | -5.61 |
| Cc1cccc(OCC(=O)OC(C)CN2CCCCC2)c1.Cl (centres unmarked) | -17.7 |
| CCOC(=O)N1CCN(Cc2cn[nH]c2-c2cccc3ccccc23)CC1 | -4.57 |
| O=[N+]([O-])c1ccc(OC(F)F)c(/C=N/n2cnnc2)c1 | 5.21 |
| CSCCC(NC(=O)c1ccc(Cl)cc1)C(=O)OCC(=O)NCc1ccco1 (centres unmarked) | -23.8 |
